This is an account of results in the RNAGym collection of RNA variant scans (doi:10.1093/nar/gkz1192).

The source gives no read counts; variants with many changes may rest on few reads.

B1: CPEB3 Ribozyme (parent)
chain: UAACAGGGGGCCACAGCAGAAGCGUUCACGUCGCAGCCCCUGUCAGAUUCUGGUGAAUCUGCGAAUUCUGCUGUAUAUCUC

This data set covers variants of B1. Description: self-cleavage, relative activity (ratio to wild type); higher = more cleavage; in vitro, sequencing. In a few lines: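 Relative activity was defined as the cleaved/total read fraction for a variant divided by the same fraction for the unmutated ribozyme. CPEB3 self-cleaving ribozyme libraries were made by rounds of error-prone PCR, barcoded, and transcribed in vitro with T7 RNA polymerase for 5 hours at 37°C, and cleavage ran through transcription plus a 15 min DNase I step before EDTA. Illumina sequencing of template-switched reverse transcripts gave the reads, and DNA sequencing mapped the barcodes. Averages come from three batches, using variants with at least 5 reads.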
In the case of UAACAGGGGGCCACAGCAGAAGCGUUCACGUCGCAGCCCCUGUCAGAUCCUGUUGAAUCUGCGAAUUCUGCAGUAUAUCUC [U49C G53U U72A], the self-cleavage came to 0.36.
On to UAACAGGGGGCCACAGCAGAAGCGUUCACGUCGCAGCCCCUGUCAGAUCCAGGUGAAUCUGCGAAUUCUGCCGUAUAUCUC [U49C U51A U72C], for which the self-cleavage amounted to 0.56.
UAACAGGGGGCCACAGCAGAAGCGUUCACGUCGCAGCCCCUGUCAGAUCCCGGUGAAUCUGCGAAUUCCGCUGUAUACCCC [U49C U51C U69C U78C U80C]: the self-cleavage turned out to be 0.13.
Take UAACAGGGGGCCACAGCAGAAGCGUUCACGUCGCAGCCCCUGUCAGAUCCUGGUGAAUCUGCGAAUUCUGCUGUUUAUCCC [U49C A75U U80C]: the self-cleavage was determined as 0.45.
For UAACAGGGGGCCACAGCAGAAGCGUUCACGUCGCAGCCCCUGUCAGAUCCAGGUGAAUCUGCGAAUUCUGCUGUAUAUCUU [U49C U51A C81U], the self-cleavage was 0.63.
Consider UAACAGGGGGCCACAGCAGAAGCGUUCACGUCGCAGCCCCUGUCAGAUCCUGGAGAAUCUGCGAAUCCUGCCGUAUAUCUC [U49C U54A U67C U72C], for which the self-cleavage was determined as 0.24.
For UAACAGGGGGCCACAGCAGAAGCGUUCACGUCGCAGCCCCUGUCAGAUCCCGGUGAAUCUGCGAAUUCUGCUGUACAUCAC [U49C U51C U76C U80A], the self-cleavage was 0.08.
Regarding UAACAGGGGGCCACAGCAGAAGCGUUCACGUCGCAGCCCCUGUCAGAUCCUGGAGAAUCUGCGAACCCUGCUGUAUAUCUC [U49C U54A U66C U67C], the self-cleavage worked out at 0.41.
As to UAACAGGGGGCCACAGCAGAAGCGUUCACGUCGCAGCCCCUGUCAGAUCCCGGUGAAUCUGCCAAUUCUGCUGUAUAUCUC [U49C U51C G63C], the self-cleavage came to 0.52.
In the case of UAACAGGGGGCCACAGCAGAAGCGUUCACGUCGCAGCCCCUGUCAGAUCCAGGUGAAUCUGCGAAUUCUGCUGUAAAUCUC [U49C U51A U76A] it was 0.51; in that of UAACAGGGGGCCACAGCAGAAGCGUUCACGUCGCAGCCCCUGUCAGAUCCUGGUGGAUCUGCGGAUACAGCUGUAUAUCUC [U49C A56G A64G U67A U69A], 0.07; in that of UAACAGGGGGCCACAGCAGAAGCGUUCACGUCGCAGCCCCUGUCAGAUCCCGGUGAAUCUGCGAAUUCUGCUGUAUGUCUC [U49C U51C A77G], 0.25.
Take UAACAGGGGGCCACAGCAGAAGCGUUCACGUCGCAGCCCCUGUCAGAUCCUGGUGUAUCAGCGAAUUCUGCUGUAUAUCUC [U49C A56U U60A]: the self-cleavage worked out at 0.1.
As for UAACAGGGGGCCACAGCAGAAGCGUUCACGUCGCAGCCCCUGUCAGAUCCUGGUGGAUCUGCGAAUACAGCUGUAUUCCUC [U49C A56G U67A U69A A77U U78C], the self-cleavage is 0.53.
For the variant UAACAGGGGGCCACAGCAGAAGCGUUCACGUCGCAGCCCCUGUCAGAUCCUGGCGGAUCUGCGUGUUCUGCUGUAUAUCUC [U49C U54C A56G A64U A65G], the self-cleavage was 0.13.
As to UAACAGGGGGCCACAGCAGAAGCGUUCACGUCGCAGCCCCUGUCAGAUCCUGGUGAUUCUACGAAUUCUGCUGUACAUCCC [U49C A57U G61A U76C U80C], the self-cleavage came to 0.12.
With UAACAGGGGGCCACAGCAGAAGCGUUCACGUCGCAGCCCCUGUCAGAUCCUGGUGAAUCUGUGAAUUCUGCUGCAUAUCUC [U49C C62U U74C], the self-cleavage was 0.1.
As to UAACAGGGGGCCACAGCAGAAGCGUUCACGUCGCAGCCCCUGUCAGAUACUGGUGAAUCUGCGAAUCCAGCUGUACAUCUC [U49A U67C U69A U76C], the self-cleavage turned out to be 0.47.
On to UAACAGGGGGCCACAGCAGAAGCGUUCACGUCGCAGCCCCUGUCAGAUCCUGGUGAUUCUGCGAAUUCUGCUGUACACCUC [U49C A57U U76C U78C], for which the self-cleavage was 0.18.
Take UAACAGGGGGCCACAGCAGAAGCGUUCACGUCGCAGCCCCUGUCAGAUACUGGUGAAUCUGCGAAUUCCGCUGUAAAUCUC [U49A U69C U76A]: the self-cleavage was found to be 0.47.
As to UAACAGGGGGCCACAGCAGAAGCGUUCACGUCGCAGCCCCUGUCAGAUCCUAGCGAAUCUGCGAAUUCUGCCGUAUACCUC [U49C G52A U54C U72C U78C], the self-cleavage worked out at 0.55.
Consider UAACAGGGGGCCACAGCAGAAGCGUUCACGUCGCAGCCCCUGUCAGAUCCUGGUGAAUCUGCGAGUUCUGCCGUAUAUCUC [U49C A65G U72C], for which the self-cleavage is 0.29.
Regarding UAACAGGGGGCCACAGCAGAAGCGUUCACGUCGCAGCCCCUGUCAGAUCCUGGUGAAUCUGCGAGUUCUGCAGUAUAUCUC [U49C A65G U72A], the self-cleavage stood at 0.1.
For UAACAGGGGGCCACAGCAGAAGCGUUCACGUCGCAGCCCCUGUCAGAUCCCGGUGAAUCUGCGAAUUCUGCGGUAUUUCUC [U49C U51C U72G A77U] the value was 0.32.
On to UAACAGGGGGCCACAGCAGAAGCGUUCACGUCGCAGCCCCUGUCAGAUCCUGGAGAAUCUGCGUAUUCUGCUGUAUAUCUC [U49C U54A A64U], for which the self-cleavage stood at 0.1.
As to UAACAGGGGGCCACAGCAGAAGCGUUCACGUCGCAGCCCCUGUCAGAUACUGGUGAAUCUGCGAAUCCUGCUGUAUUCUUC [U49A U67C A77U U78C C79U], the self-cleavage was 0.21.
Turning to UAACAGGGGGCCACAGCAGAAGCGUUCACGUCGCAGCCCCUGUCAGAUCCCGGUGUAUCUGCGAAUUCUGCUGUAUAUCUC [U49C U51C A56U], the self-cleavage turned out to be 0.26.
Take UAACAGGGGGCCACAGCAGAAGCGUUCACGUCGCAGCCCCUGUCAGAUCCUGGUGAGACUGCGAAUACUGCCGUAUAUCUC [U49C A57G U58A U67A U72C]: the self-cleavage turned out to be 0.08.
In the case of UAACAGGGGGCCACAGCAGAAGCGUUCACGUCGCAGCCCCUGUCAGAUCCAGGUGAAUCUGCGGAUUCUGCUGUAUAACAC [U49C U51A A64G U78A U80A], the self-cleavage was determined as 0.34.
For UAACAGGGGGCCACAGCAGAAGCGUUCACGUCGCAGCCCCUGUCAGAUCCUGGUGGAUCUGCGAGUUCUGCUGUAUAUCUC [U49C A56G A65G], the self-cleavage is 0.31.
Turning to UAACAGGGGGCCACAGCAGAAGCGUUCACGUCGCAGCCCCUGUCAGAUCCAGGUGAAUGUGCGGAUUCUGCUGUAUAUCUC [U49C U51A C59G A64G], the self-cleavage stood at 0.16.
In the case of UAACAGGGGGCCACAGCAGAAGCGUUCACGUCGCAGCCCCUGUCAGAUCCUAGUGAAUCUGCGAGUUCUGCCGUAUAUCUC [U49C G52A A65G U72C] it was 0.24; in that of UAACAGGGGGCCACAGCAGAAGCGUUCACGUCGCAGCCCCUGUCAGAUCCUGGUGGAUCUGCGAAUUCUGCCGUAUAUCCC [U49C A56G U72C U80C], 1.28.
For the variant UAACAGGGGGCCACAGCAGAAGCGUUCACGUCGCAGCCCCUGUCAGAUCCUGGUGAAUCUGCGGAUUCUGCCGUAUAUCUC [U49C A64G U72C], the self-cleavage was found to be 0.34.
